Here are results for 88 compounds from PubChem BioAssay AID463173 (ICCB-Longwood Screening Facility, Harvard Medical School, 2010).

Screen size: about 52,000 compounds; about 4,300 (8.3%) were called active. No stated cut-off is given here; in the data, active means survival mostly below about 52% (no sharp cut-off); inactive means mostly above about 56%. This is one part of the list.

This experiment relates to DeltatarO mutant. As to the kind of experiment: S. aureus survival, RN4220 and DeltatarO strains – OD600, teichoic acid synthesis inhibitors, primary screen (AID 463173). As to conditions: S. aureus RN4220 wild type/DeltatarO growth, OD600, 18 h, stronger effect = lower value, screened at 18.75 µg/mL (by protocol).
As for `CCN(C(=O)c1ccco1)c1nc(CC(=O)Nc2ccc(Cl)cc2)cs1`, the survival is inactive: 90%.
For the compound `CCc1ccccc1NC(=O)Cn1c(=O)n(CCc2ccccc2)c(=O)c2sc3ccccc3c21`, the survival is inactive: 71%.
Turning to `N#C/C(=C\c1ccc(N2CCOCC2)o1)C(=O)NCC1CCCO1` (stereo not drawn), the survival is inactive: 88%.
The same measure for `COc1ccc(-c2c3c(nc4sc(C(=O)Nc5cccc(OC)c5)c(N)c24)CC(C)(C)CC3=O)cc1`: inactive: 60%; for `COc1ccc(N(C)C(=O)Cn2cnc3sc(C)c(S(=O)(=O)N4CCN(c5ncccn5)CC4)c3c2=O)cc1`: inactive: 80%; for `Cc1ccc(-c2nc3cccc(C)n3c2Nc2ccc3c(c2)OCCO3)cc1`: inactive: 85%.
The same measure for `O=C(NCCS(=O)(=O)N1CCN(c2cccc(Cl)c2)CC1)C(c1ccccc1)c1ccccc1`: inactive: 72%.
The same measure for `CCOCCCn1c(=N)c(C(=O)NC2CCCCC2)cc2c(=O)n3ccccc3nc21`: inactive: 67%.
For `CCc1nn(CC(=O)NCc2ccccc2)c(=O)c2cccn12`, the survival was inactive: 69%.
The same measure for `Cc1ccc(Cl)cc1NC(=O)CN1C=NS(=O)(=O)c2ccccc21`: inactive: 73%; for `Cc1cccc(Cn2c(=O)n(-c3cc(C)cc(C)c3)c(=O)c3oc4ccccc4c32)c1`: inactive: 71%.
With `CCc1nn(CCCC(=O)NCc2ccccc2OC)c(=O)c2cc3occc3n12`, the survival is inactive: 84%.
The same measure for `Cc1cc(C)c2c(n1)nn1c(C)c(CCC(=O)Nc3cccc(C)c3C)c(C)nc21`: inactive: 88%; for `O=c1c2ccccc2nc(SCc2ccccc2)n1Cc1ccco1`: inactive: 63%; for `Cc1ccc(Cl)cc1N1CCN(C(=O)C2CCN(S(=O)(=O)c3cn(C)cn3)CC2)CC1`: inactive: 98%.
For `Cc1cccc(N2CCN(CCCNC(=O)Cn3ncc4c([nH]c5ccccc54)c3=O)CC2C)c1` (stereo not drawn), the survival is inactive: 103%.
The same measure for `Cc1c(C(=O)N2CCCCCC2)c(S(=O)(=O)Nc2cccc(C#N)c2)c(C)n1C`: inactive: 85%; for `Cc1cc(=O)[nH]c2nnc(SCc3ccccc3F)n12`: inactive: 71%.
Consider `CC1(C)N=C(SCc2ccc(Cl)cc2)c2ccccc2N1`, for which the survival was inactive: 100%.
The same measure for `O=C(NCCc1ccccc1)C(=O)NCC(c1cccs1)S(=O)(=O)c1cccs1` (stereo not drawn): inactive: 99%.
As to `Cc1ccc(S(=O)(=O)N2CCN(Cc3cc(=O)n4nc(-c5ccccc5Cl)sc4n3)CC2)cc1`, the survival is inactive: 74%.
The same measure for `Cn1c(=O)cc(SCC(=O)NCc2ccc(F)cc2)c2cc(Cl)ccc21`: inactive: 88%; for `CCOC(=O)c1c(C)[nH]c(C)c1S(=O)(=O)N1CCC(C(=O)Nc2ccccc2CC)CC1`: inactive: 64%.
Consider `COc1ccc(-c2cn3c(n2)sc2cc(C(=O)Nc4ccc(C)c(Cl)c4)ccc23)cc1`, for which the survival is inactive: 69%.
The same measure for `CC1=C(c2ccc(C(C)C)cc2)S(=O)(=O)N=C1N1CCC(C(=O)Nc2ccc(C)cc2)CC1`: inactive: 76%.
In the case of `CCOc1ccc(-c2nnc(SCC(=O)Nc3ccc(C)cc3C)o2)cc1`, the survival is inactive: 78%.
The same measure for `COC(=O)c1ccc(NC(=O)n2ncc3c(C)cccc32)cc1`: inactive: 76%; for `CCOC(=O)c1[nH]c2c(c1Cc1ccccc1C)C(=O)CC(c1ccccc1)C2` (stereo not drawn): inactive: 92%.
As to `CCc1ccc(NC(=O)c2cnn(-c3c(C)cccc3C)c2C2CCN(C(=O)OC(C)(C)C)CC2)cc1`, the survival is inactive: 89%.
For `CCn1c(C(=O)NCc2ccccc2Cl)cc2sc(Cl)cc21`, the survival was inactive: 63%.
The same measure for `CC(Oc1ccccc1)C(=O)Nc1ccc(C(=O)OCc2cc(=O)n3nc(C4CC4)sc3n2)cc1` (stereo not drawn): inactive: 64%.
In the case of `O=C(CCC(=O)N1Cc2ccccc2Oc2ncccc21)NCc1cccc(Cl)c1`, the survival was inactive: 75%.
The same measure for `COc1ccc(Cc2nc3ccccc3n2Cc2ccccc2C)cc1`: active: -3%; for `Cc1cc2[nH]c(=O)c(=O)[nH]c2cc1S(=O)(=O)N1CCN(c2ccccc2)CC1`: inactive: 86%; for `O=C(NCc1cccc(Cl)c1)c1ccc(NC(=O)N2CCSc3ccccc32)cc1`: inactive: 57%.
Take `COc1ccc(-c2cc3ccc(O)c(CN4CCCC(C)C4)c3oc2=O)cc1OC` (stereo not drawn): the survival was inactive: 62%.
As to `COc1cc(S(=O)(=O)N(CC(=O)Nc2c(C)cccc2C)CC2CCCO2)ccc1-n1cnnn1` (stereo not drawn), the survival is inactive: 73%.
For `CCc1ccc(-n2nc(CO)c(C(=O)NCc3ccccc3Cl)n2)cc1`, the survival was inactive: 49%.
The same measure for `Cn1c(=O)c(=O)n(C)c2cc(NS(=O)(=O)c3ccc(Br)cc3)c(Cl)cc21`: inactive: 61%; for `COc1ccc(NC(=O)N2CCCn3nc(C)cc32)cc1OC`: inactive: 93%.
Take `CCCCNC(=O)CSc1nc2cc3c(cc2c(=O)n1Cc1ccc(C(=O)NCCc2ccc(OC)c(OC)c2)cc1)OCO3`: the survival was inactive: 85%.
In the case of `N#Cc1c(Nc2ccccc2)sc(C(=O)c2cccs2)c1N`, the survival is inactive: 75%.
Turning to `O=C(CN1C(=O)CCn2nc(-c3ccccc3)cc21)NCc1ccccc1`, the survival was inactive: 106%.
Take `c1ccc(OCCCn2nnc(-c3ccncc3)n2)cc1`: the survival was inactive: 87%.
`COc1cccc(CNC(=O)C(=O)NCC(c2ccco2)S(=O)(=O)c2ccccc2)c1` (stereo not drawn): the survival was inactive: 81%.
The same measure for `Cc1ccc(Cc2c(C)nc3nc(SCC(=O)NCCC(C)C)nn3c2C)cc1`: inactive: 70%; for `COc1ccc(NC(=O)Cn2c(=O)n(-c3ccc(C)cc3)c(=O)c3c2c2cc(C)ccc2n3C)cc1`: inactive: 125%.
Take `Cc1nn(C)c(C)c1S(=O)(=O)N(CC(=O)Nc1ccc(F)cc1F)c1ccc(C(C)C)cc1`: the survival is inactive: 94%.
The same measure for `CC1CCN(c2nc3ccc(C(=O)NC(C)C)cc3s2)CC1`: inactive: 74%; for `Cc1ccc(CN2C(=O)SC(Nc3ccc(Cl)cc3)C2=O)cc1` (stereo not drawn): active: 30%; for `COc1cccc(CNC(=O)c2sc3ncccc3c2-n2c(C)ccc2C)c1OC`: inactive: 107%.
With `O=C(Cn1nc(Cc2cccnc2)c2ccccc2c1=O)Nc1ccc(F)c(Cl)c1`, the survival was inactive: 74%.
As for `COc1ccc(-c2noc(CSc3nc4ccc(C)cc4[nH]3)n2)cc1`, the survival is active: 39%.
The same measure for `CCC(C(=O)Nc1cc(C(F)(F)F)ccc1Cl)n1nc(C)c2sc3ccccc3c2c1=O` (stereo not drawn): inactive: 74%; for `COc1ccc(C(=O)NCC(c2ccc(Cl)cc2)N2CCCCC2)cc1` (stereo not drawn): inactive: 63%.
The same measure for `O=C(Cn1cnc2onc(-c3ccc(F)cc3)c2c1=O)N1CCN(c2ccc(F)cc2)CC1`: inactive: 72%; for `COc1ccccc1CNC(=O)c1cnc2sc(N3CCCCC3)nn2c1=O`: inactive: 66%.
For `COc1cccc(C2C(C(=O)Nc3ccccc3OC)=C(C)Nc3nc(-c4ccco4)nn32)c1` (stereo not drawn), the survival is inactive: 69%.
On to `COc1ccc(-n2nc(C(=O)NCCc3ccc(OC)c(OC)c3)c3c4ccccc4n(C)c3c2=O)cc1`, for which the survival is inactive: 89%.
The same measure for `CCC(Sc1nnc2c3ccccc3n(CC)c2n1)C(=O)Nc1ccc(NC(C)=O)cc1` (stereo not drawn): inactive: 104%; for `Cc1ccccc1-c1nc(CS(=O)(=O)CC(=O)NCCCc2ccccc2)c(C)o1`: inactive: 118%; for `CC(=O)NC1C(=O)N(c2ccccc2)N=C1C` (stereo not drawn): inactive: 87%.
The same measure for `COc1cc(NC(=O)CCc2nc3cccnc3n2Cc2cccs2)cc(OC)c1OC`: inactive: 78%; for `CC1(C(=O)NC2CCCCC2)Cc2ccccc2C(=O)N1Cc1ccccc1Cl` (stereo not drawn): active: 43%; for `CCc1ccc(OCc2nc(-c3ccc(OC)c(OC)c3)no2)c(Br)c1`: active: 33%.
The same measure for `O=C(OCc1ccccc1)Sc1nnc(-c2ccccc2Cl)o1`: inactive: 90%; for `O=C(CCc1nc2cccnc2n1-c1ccccc1)Nc1ccc(Cl)c(Cl)c1`: inactive: 51%.
For `CN(C)c1ccc(C2C=C(c3ccccc3)Nc3nnnn32)cc1` (stereo not drawn), the survival was inactive: 52%.
The same measure for `CC(=O)c1ccc(N2C(=O)N(Cc3ccccc3C#N)c3ccccc3S2(=O)=O)cc1`: inactive: 91%; for `CCOc1ccc(C(=O)NCC(c2ccc3c(c2)OCO3)N2CCOCC2)cc1` (stereo not drawn): inactive: 58%; for `CCc1ccccc1N(C)C(=O)c1cn(-c2cccc(OC)c2)c(=O)c2ccccc12`: inactive: 61%.
The same measure for `O=S(=O)(c1ccc(Cl)c(Cl)c1)N1CCCCC1`: inactive: 75%; for `O=C(Nc1ccc(F)cc1F)C1CCN(S(=O)(=O)c2ccc3[nH]c(=O)ccc3c2)CC1`: inactive: 83%; for `CC1CC(NS(=O)(=O)c2cccs2)CC(C)(C)C1` (stereo not drawn): inactive: 95%.
For the compound `CCc1ccc(NC(=O)Cn2nnc(C(=O)NCc3ccc(C)cc3)c2N)cc1`, the survival was inactive: 95%.
The same measure for `CCOC(=O)c1nc(Nc2ccccc2OC)c2ccccc2n1`: active: 44%.
On to `COc1ccc(NCc2nnc(SCC(N)=O)n2-c2ccc(C)cc2)cc1`, for which the survival was inactive: 89%.
In the case of `Cc1cn2c(=O)cc(COc3ccc(NC(=O)c4ccccc4C)cc3)nc2s1`, the survival was inactive: 138%.
Take `CCCOc1ccc(-c2nc(N3CCCCC3)c3ccccc3n2)cc1`: the survival is active: -2%.
With `Cc1nn(C)c2c1c(C(F)(F)F)cc(=O)n2CC(=O)N1CCCCC1C` (stereo not drawn), the survival is inactive: 91%.
The same measure for `CCCCN(CC)C(=O)c1cc2c(=O)n3ccccc3nc2n1C`: inactive: 50%; for `COc1cc(-c2noc(-c3ccc(NCc4ccco4)c([N+](=O)[O-])c3)n2)cc(OC)c1OC`: active: 49%.
Turning to `Cc1oc2ccc(O)c(CN3CCCCC3)c2c1C(=O)Nc1cccc(C(F)(F)F)c1`, the survival is inactive: 52%.
With `Cc1c(C(=O)Nc2ccc(F)c(Cl)c2)oc2ccc(S(=O)(=O)N(C)C3CCCCC3)cc12`, the survival was inactive: 80%.
The same measure for `Cc1ccc(-n2ncc(C(=O)Nc3ccc4c(c3)OCO4)c2C2CCN(C(=O)OC(C)(C)C)CC2)c(C)c1`: inactive: 118%; for `CC(C)(C)c1ccc(S(=O)(=O)c2cn(CC(=O)Nc3ccccc3)c3ccccc3c2=O)cc1`: inactive: 78%.
The same measure for `Cc1cccc(CCNC(=O)c2cnc3c(C)cccn3c2=O)c1`: inactive: 89%; for `Cc1ccc(CNC(=O)c2ccc3c(c2)N(Cc2ccccc2)C(=O)c2ccccc2S3(=O)=O)cc1`: inactive: 74%.
